Measured values taken from PubChem BioAssay (NCI).
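Interpolation was linear, between the two tested concentrations surrounding the appropriate level; five concentrations were tested over 48 hours in 96-well plates. GI50 = concentration required for 50% inhibition of growth. Definition used: TGI = concentration required for complete inhibition of growth.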

Test system: NCI-H322M lung
Test: NCI tumour cell line growth inhibition, 48 h

Row | SMILES | GI50 [µM] | TGI [µM]
1 | OC1CCN(CCCOc2c3ccc(Cl)cc3nc3c2oc2ccccc23)CC1 | 1.29 | 6.31
2 | CCCn1cnc2c(c1=N)C(c1ccc(Cl)cc1)c1sc3c(C)cccc3c1O2 (centres undefined) | 0.698 | 27.8
